Values joined by “and” are separate entries in the source; they are usually repeats but may differ in a detail not shown here. Equal entries are not always repeated.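 Five concentrations, 48 hours, 96-well plates. The concentration for 50% growth inhibition is given as GI50. At the TGI there is no net growth.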
System: NCI-H322M lung
Experiment: NCI anticancer screen, dose series, 48 h

| SMILES | GI50 | TGI |
| --- | --- | --- |
| O=C(c1nn(-c2ccc(Cl)cc2)cc1O)n1nc(C(F)(F)F)cc1-c1ccccc1 | 0.816 µM | > 100 µM |
| Cn1c(COC(=O)NC2CCCCC2)c(COC(=O)NC2CCCCC2)c2ccc3cc(C=O)ccc3c21 | – | > 100 µM |
| Cc1ccc(-c2cc(-c3ccc(C)cc3)nc(N3CCN(CCNc4ccnc5cc(Cl)ccc45)CC3)n2)cc1 | 3.36 µM | 15 µM |
| O=C1/C(=C/c2ccc(Cl)c(Cl)c2)CNC/C1=C\c1ccc(Cl)c(Cl)c1 | – | 47 µM |
| COc1ccc(C2=N[C@@H](c3ccc(Cl)cc3)[C@@H](c3ccc(Cl)cc3)N2C(=O)N2CCNC(=O)C2)c(OC(C)C)c1 | 18.7 µM and 13 µM and 14.3 µM | 36.5 µM and 26.8 µM and 29.1 µM |
| COc1cc2cnc(-c3ccccc3)cc2cc1OC | – | 80.3 µM |
| COc1cc(C2c3cc(OC)c(OC)c(O)c3C(=O)C3CCC(=O)N32)cc(OC)c1OC (centres undefined) | – | > 100 µM |
| CC(C)(C)OC(=O)n1c(Cl)c(C=O)c2ccccc21 | – | 40.6 µM |
| Cc1ccc2nc3c(n2c1)C(=O)C(=O)c1ccccc1-3 | 0.693 µM | 1.72 µM |
| CCOC(OCC)C(CC)[Se]c1ccccc1 (centres undefined) | – | > 100 µM |
| O=C1/C(=C/c2ccc(Cl)cc2)CN(C(=O)CCN2CCC(=NO)CC2)C/C1=C\c1ccc(Cl)cc1 | 1.52 µM | 2.93 µM |
| COc1ccc(/C=N\NC(=O)c2ccc3nc(-c4ccc(Cl)cc4)[nH]c3c2)cc1 | 2.49 µM | 7.2 µM |
| O=C(CSCC(=O)N/N=C\c1ccccc1F)N/N=C\c1ccccc1F | – | > 100 µM |
| N#Cc1ccc2[nH]c3c(c2c1)CC(=O)Nc1ccccc1-3 | – | > 100 µM |
| CC(C)=CC(=O)N[C@@H]1CC2CCC3C(CC[C@@]4(C)C3CC[C@@H]4C(C)N(C)C)[C@@]2(C)C[C@@H]1O (some centres undefined) | 4.95 µM | 41.6 µM |
| CCOc1cc2c(=O)oc3c(OC)ccc4ccc(c1OC)c2c43 | – | > 100 µM |

| SMILES | GI50 | TGI |
| --- | --- | --- |
| NC(=O)c1sc(-n2cnc3ccc(C(F)(F)F)cc32)cc1OCc1ccccc1Br | 3.87 µM | > 25 µM |
| O=c1c2cc(I)ccc2nc(SCc2nnco2)n1Cc1ccccc1 | – | > 100 µM |
| CC(=O)Nc1ccc(-c2csc(Nc3cccc(-c4csc(-c5ccccc5)n4)c3)n2)cc1 | > 50 µM | > 50 µM |
| C[C@@H](Oc1cc(-n2cnc3ccc(OCC4CCN(C)CC4)cc32)sc1C(N)=O)c1ccccc1Cl | 0.175 µM | 5.41 µM |
| CCCCCCCCCCCC1=NC(C)(C)CN1CC(C)O (centres undefined) | 9.98 µM | 21.5 µM |
| COc1ccc(N2C(=O)C3c4[nH]c5ccccc5c4C4c5ccccc5CC4C3C2=O)cc1 (centres undefined) | – | > 100 µM |
| C=C1CCC2C(C)(CO)C(O)CCC2(C)C1C/C=C1/CCOC1=O (centres undefined) | – | > 100 µM |
| Cc1cn([C@H]2C[C@H](O)[C@@H](CO)O2)c(=O)nc1N | – | > 100 µM |
| C[N+](C)(C)CC(=O)N/N=C(/Cc1nc2ccc([N+](=O)[O-])cc2[nH]c1=O)C(=O)Nc1cc(C(F)(F)F)ccc1Cl | – | > 100 µM |
| CN(C)CC1CCCCCC(Br)C1=O (centres undefined) | – | > 100 µM |
| NCCS(=O)(=O)O | – | > 100 µM |
| O=c1c2c(=NCCN3CCCC3)cc3c(=O)n(CCCN4CCOCC4)c(=O)c4ccc(c(O)n1CCCN1CCOCC1)c2c4-3 | 0.0737 µM | 0.683 µM |
| CCn1c(=O)c2c3ccc(OC)cc3[nH]c2c2ccc(OC)cc21 | – | > 100 µM |
| O=C1c2cccnc2-c2nccc3c2c1nc1ccc(Br)cc13 | – | 0.137 µM |
| O=S(c1ccc(Cl)cc1)c1ccccc1C1=NCCN1 (centres undefined) | – | > 100 µM |
| O=c1[nH]c(=O)n(COCc2ccccc2)c2ccccc12 | – | > 100 µM |
